# Assay results published in article PMC4336329 (PLoS ONE, 2015).
# In all, about 310,000 compounds went through this assay and about 2,200 (0.71%) showed an effect of 50% or more. Effects have a minus sign here. The list shows a part of the results.
# Target: human ether-à-go-go-related gene (hERG) potassium channel (human, UniProt Q12809)
# Experiment: primary screen, population patch clamp on CHO cells stably expressing hERG
# Chain of human ether-à-go-go-related gene (hERG) potassium channel (Q12809 whole entry, looked up): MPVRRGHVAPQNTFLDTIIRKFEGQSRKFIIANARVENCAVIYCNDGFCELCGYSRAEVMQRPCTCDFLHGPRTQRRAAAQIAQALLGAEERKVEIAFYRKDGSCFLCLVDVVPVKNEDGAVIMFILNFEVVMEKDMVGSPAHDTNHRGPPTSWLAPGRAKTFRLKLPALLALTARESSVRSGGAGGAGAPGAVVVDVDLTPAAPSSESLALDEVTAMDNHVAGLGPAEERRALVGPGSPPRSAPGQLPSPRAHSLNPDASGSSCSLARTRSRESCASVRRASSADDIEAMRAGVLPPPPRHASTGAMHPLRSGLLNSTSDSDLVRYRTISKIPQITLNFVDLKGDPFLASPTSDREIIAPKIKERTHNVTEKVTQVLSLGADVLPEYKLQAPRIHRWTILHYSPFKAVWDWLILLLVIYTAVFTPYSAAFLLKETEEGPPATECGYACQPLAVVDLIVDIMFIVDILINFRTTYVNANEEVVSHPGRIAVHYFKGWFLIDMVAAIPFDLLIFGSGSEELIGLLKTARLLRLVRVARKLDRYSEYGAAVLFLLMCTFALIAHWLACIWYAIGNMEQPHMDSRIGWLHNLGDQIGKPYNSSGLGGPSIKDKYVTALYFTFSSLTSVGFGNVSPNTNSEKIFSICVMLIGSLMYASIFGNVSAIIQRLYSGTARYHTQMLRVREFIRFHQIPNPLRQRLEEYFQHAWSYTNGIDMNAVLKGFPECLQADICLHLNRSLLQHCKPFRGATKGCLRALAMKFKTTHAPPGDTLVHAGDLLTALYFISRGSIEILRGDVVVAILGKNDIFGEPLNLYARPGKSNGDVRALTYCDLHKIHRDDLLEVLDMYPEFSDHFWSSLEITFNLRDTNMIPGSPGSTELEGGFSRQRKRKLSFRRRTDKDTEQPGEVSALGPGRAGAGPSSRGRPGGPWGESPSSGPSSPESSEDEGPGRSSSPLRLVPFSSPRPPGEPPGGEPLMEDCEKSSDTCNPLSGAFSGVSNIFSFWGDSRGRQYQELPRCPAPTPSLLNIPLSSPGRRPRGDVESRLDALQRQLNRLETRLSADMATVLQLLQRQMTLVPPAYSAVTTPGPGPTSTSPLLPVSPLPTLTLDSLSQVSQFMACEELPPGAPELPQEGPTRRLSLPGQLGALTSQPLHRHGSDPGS
row,SMILES,"hERG current change (%, negative = inhibition) at 1uM [%]"
1,CCCOC(=O)c1ccc(NC(=O)c2cccc(S(=O)(=O)N3CCN(C(C)=O)CC3)c2)cc1,8.61
2,Cc1ccc(S(=O)(=O)n2cnc3ccccc32)cc1,8.03
3,CCOC(=O)Cc1csc(SCC(=O)Nc2cc(Cl)ccc2Oc2ccccc2)n1,3.7
4,COc1ccc(NC(=O)C23CC4CC(C2)CC(n2cnc(Br)n2)(C4)C3)c(OC)c1,-5.91
5,O=[N+]([O-])c1ccccc1CNC(Cc1ccccc1)c1ccccc1 (stereo not drawn),3.06
6,Cc1cccc(Cn2ccc(N)n2)c1,15.1
7,CCn1c(=O)n(CC)c2cc(N3CCCC3)c(NC(=O)c3cccc(OC)c3)cc21,9.95
8,Cc1ccc(-c2nnn(CC(=O)N(CC(=O)NC(C)C)c3cnc4ccccc4c3)n2)o1,15.9
9,CCc1ccc2[nH]c3nc(SCC(=O)NNC(=O)c4ccc(C(C)(C)C)cc4)nnc3c2c1,-2.05
10,O=C(Nc1ccc(Cc2ccc(NC(=O)N3CCOCC3)cc2)cc1)N1CCOCC1,9.32
11,CN(C)S(=O)(=O)c1ccc(C(=O)NCC(=O)N/N=C/c2ccccc2Cl)cc1,4.1
12,CC1CCC(NC(=O)CCNS(=O)(=O)c2ccc3c(c2)CCC(=O)N3)CC1 (stereo not drawn),7.82
13,Cl.O=C(O)C1=CCCN(CCON=C(c2ccccc2)c2ccccc2)C1,5.52
14,COc1cc(OC)cc(C(=O)NCCNC(=O)c2ccccn2)c1,11.8
15,CCCn1c(SCC(=O)N2CCCCC2)nnc1C(C)C,5.95
16,CCN(CC)S(=O)(=O)c1cccc(NC(=O)/C=C/c2ccc([N+](=O)[O-])cc2)c1,6.71
17,COc1ccc2nc(NCCO)[nH]c2c1,12.6
18,CC(C)=CCc1c(C)nc2ccccc2c1C(=O)O,13.1
19,CC1(C)CC(=O)C2=C(C1)OC(N)=C([N+](=O)[O-])C2c1ccc(F)cc1 (stereo not drawn),13.6
20,CCCn1c(=O)c(C(=O)NNC(=O)c2ccc(Cl)cc2Cl)c(O)c2ccccc21,1.62
21,CC(C)(C)c1cc[n+](-c2[nH]c(=O)sc2/C=N/NC(=O)c2ccccc2[O-])cc1,16.7
22,OC[C@H]1O[C@@H](Oc2ccc3cc(Br)ccc3c2)[C@H](O)[C@@H](O)[C@H]1O,4.75
23,O=C(CCCC(=O)c1ccccc1)Nc1ccc(F)cc1,11.3
24,Cc1cccc2cc(CN(Cc3ccc(F)cc3)C(=O)C(F)(F)F)c3nnnn3c12,30.5
25,CCc1cccc(CC)c1NC(=O)C[n+]1cccc(C(N)=O)c1.[Cl-],8.4
26,O=C1Nc2ccccc2C12OCCCO2,3.36
27,Cc1ccc(CNC(=O)CCNC(=O)Cn2ccc3ccccc3c2=O)cc1,9.08

row,SMILES,"hERG current change (%, negative = inhibition) at 1uM [%]"
1,Clc1ccc(NCc2cccnc2)c(Cl)c1,13.5
2,COc1ccc(CNC(=O)C(C#N)c2nc3ccccc3nc2N2CCN(C)CC2)cc1 (stereo not drawn),-8.5
3,CC(C)OCCCNC(=O)COCC(=O)Nc1ccc(OCCc2ccccc2)cc1,7.35
4,O=C(COC(=O)c1c(Cl)ccc(Cl)c1Cl)NC(=O)NCc1ccccc1,12.7
5,COc1ccc(-c2nnn(CC(=O)N3CCOCC3)n2)cc1,6.27
6,COc1cccc(NC(=S)NC(=O)c2cccnc2)c1,13.7
7,Cc1ccc(N2C(=O)CC(C)(C)CC2=O)cc1Cl,14
8,COc1ccc(OC)c(CN2CCN(C(=O)c3ccc(S(=O)(=O)Nc4ccccc4F)cc3)CC2)c1,6.91
9,COc1ccc(-c2cc(C(=O)N3CCN(c4ccccc4)CC3)c3ccccc3n2)cc1OC,4.27
10,O=C(Nc1ccncc1)c1ccc(Cl)c([N+](=O)[O-])c1,2.42
11,COc1ccc(C2C(C#N)=C(C)NC3=C2C(=O)CC(C)(C)C3)cc1 (stereo not drawn),2.72
12,CCCCCC(=O)Nc1cccc(C2=NOC3(C2)C[C@@H](C(N)=O)N(C(=O)c2cc([N+](=O)[O-])cc([N+](=O)[O-])c2C)C3)c1 (stereo partly drawn),6.48
13,C[C@H]([C@H](O)c1ccccc1)N(C)C(=O)CN,15.3
14,CC(=O)N1CCN(c2ccc(NC(=O)C(c3ccccc3)c3ccccc3)cc2)CC1,12.9
15,N#CC(C#N)=NNc1ccc(S(=O)(=O)N2CCCCC2)cc1,-8.42
16,COC(=O)C12CCC(C)(c3nc4ccccc4nc31)C2(C)C (stereo not drawn),9.38
17,COCCC(=O)N1CCCC(C(=O)c2ccccc2SC)C1 (stereo not drawn),13.6
18,COc1ccc(C(=O)Nc2c(-c3cccs3)c(=O)c3ccccc3n2C)cc1,8.93
19,O=C(N/N=C/c1ccc(-c2cccc(C(F)(F)F)c2)o1)c1cccc(F)c1,6.11
20,O=C(c1ccc(S(=O)(=O)Cc2ccccc2Cl)c([N+](=O)[O-])c1)N1CCOCC1,12.6
21,COc1ccc(CN(C(=O)c2cnccn2)C(C(=O)Nc2ccc(F)cc2)c2ccccc2)cc1 (stereo not drawn),-15.7
22,CCn1c(SCC(=O)Nc2nc(C)c(C(=O)OC)s2)nnc1C(C)C,7.05
23,NS(=O)(=O)c1ccc(N2CCN(CCOc3ccc(Cl)cc3)CC2)nc1,-34.5
24,CCC(C)NC(=O)Cn1c(=O)n(-c2ccccc2)c(=O)c2ccc(C(=O)NCc3ccco3)cc21 (stereo not drawn),2.41
25,Cc1cc(C)nc(OC(C(=O)O)C(OCCC(C)C)(c2ccccc2)c2ccccc2)n1 (stereo not drawn),10.8
26,CCSC(=Nc1ccccc1)Nc1ccccc1,11
27,Cc1ccc(NC(=O)[C@@H](CC(C)C)NC(=O)[C@@H]2Cc3ccccc3CN2)cc1,11.4
